Holding throughout (test): cell-based or functional assay
Test [1] has as its target intermediate affinity hIL-2 receptor complex (IL-2Rβγ) (human) (UniProt P14784).
The target of test [2] is high-affinity hIL-2 receptor (IL-2Rαβγ) on NK-92 cells (human) (UniProt P01589).
In test [3] the target is high-affinity hIL-2 receptor (IL-2Rαβγ) (human) (UniProt P01589).

Some results are limits rather than exact numbers.

Chain of UniProt P14784 (P14784 27-551, chain 1 of 2): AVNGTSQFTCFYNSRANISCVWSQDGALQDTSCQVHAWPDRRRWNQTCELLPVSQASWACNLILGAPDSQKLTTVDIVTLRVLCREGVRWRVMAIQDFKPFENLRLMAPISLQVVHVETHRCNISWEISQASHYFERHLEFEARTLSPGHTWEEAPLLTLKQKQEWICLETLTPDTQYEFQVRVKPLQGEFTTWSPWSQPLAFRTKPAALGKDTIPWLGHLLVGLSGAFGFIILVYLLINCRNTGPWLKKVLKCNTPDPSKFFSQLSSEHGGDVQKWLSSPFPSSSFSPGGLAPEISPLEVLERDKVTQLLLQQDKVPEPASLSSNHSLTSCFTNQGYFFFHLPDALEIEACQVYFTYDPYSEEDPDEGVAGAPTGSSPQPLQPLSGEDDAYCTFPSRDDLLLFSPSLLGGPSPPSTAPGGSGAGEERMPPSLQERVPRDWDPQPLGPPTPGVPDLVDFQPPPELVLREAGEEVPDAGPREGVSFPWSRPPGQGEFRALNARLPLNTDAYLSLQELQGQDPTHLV
Chain of UniProt P14784 (chain, as listed by the source, chain 2 of 2): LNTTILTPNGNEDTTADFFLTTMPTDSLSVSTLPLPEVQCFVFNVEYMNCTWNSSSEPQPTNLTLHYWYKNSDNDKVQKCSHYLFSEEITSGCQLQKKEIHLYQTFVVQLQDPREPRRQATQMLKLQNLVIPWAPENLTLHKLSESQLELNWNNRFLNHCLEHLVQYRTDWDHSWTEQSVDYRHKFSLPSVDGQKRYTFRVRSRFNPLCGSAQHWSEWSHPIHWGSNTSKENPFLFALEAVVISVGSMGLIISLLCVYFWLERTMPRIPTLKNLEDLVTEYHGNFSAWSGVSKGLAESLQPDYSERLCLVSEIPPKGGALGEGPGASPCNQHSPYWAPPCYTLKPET

B1: 1H3-hIgG1-L6-hIL-2 (D20R) (protein)
heavy: EVQLVESGGGLVQPGRSLKLSCAVSGFTFSDYAMAWVRQAPKKGLEWVATISYDGSRTYYRDSVKGRFTISRDNAKITLYLQMDSLRSEDTATYYCARHGSGYFDYWGQGVMVTVSS[not shown - about 450 residues with a human IgG1 Fc and changes]
light: DTVLTQSPALAVSPGERVTISCRASESVRTGVHWYQQKPGQQPKLLIYGASNLESGVPARFSGSGSGTDFTLTIDPVEADDTATYFCQQSWNDPFTFGSGTKLEIKRTVAAPSVFIFPPSDEQLKSGTASVVCLLNNFYPREAKVQWKVDNALQSGNSQESVTEQDSKDSTYSLSSTLTLSKADYEKHKVYACEVTHQGLSSPVTKSFNRGEC
In the case of B1, the Fold change from rhIL-2 (TF1 + IL-2Rβ), pSTAT5 titration in test [1] is over 10000 fold. Besides, the Fold change from hIL-2 (NK-92) in test [2] was found to be 19 fold.

B2: 1H3-hIgG1-L6-hIL-2 (D20A/E61P) (protein)
heavy: EVQLVESGGGLVQPGRSLKLSCAVSGFTFSDYAMAWVRQAPKKGLEWVATISYDGSRTYYRDSVKGRFTISRDNAKITLYLQMDSLRSEDTATYYCARHGSGYFDYWGQGVMVTVSS[not shown - about 450 residues with a human IgG1 Fc and changes]
light: B1 light
With B2, the Fold change from hIL-2 (TF1 + IL-2Rβ), pSTAT5 fixed conc. in test [1] turned out to be 1 fold. This molecule returned a Fold change from hIL-2 (NK-92), pSTAT5 fixed conc. in test [3] of 15 fold.

B3: 1H3-hIgG1-L6-hIL-2 (E95R) (protein)
heavy: EVQLVESGGGLVQPGRSLKLSCAVSGFTFSDYAMAWVRQAPKKGLEWVATISYDGSRTYYRDSVKGRFTISRDNAKITLYLQMDSLRSEDTATYYCARHGSGYFDYWGQGVMVTVSS[not shown - about 450 residues with a human IgG1 Fc and changes]
light: B1 light
Regarding B3, the Fold change from rhIL-2 (TF1 + IL-2Rβ), pSTAT5 titration in test [1] was 5 fold. For the same molecule, in test [2], the Fold change from hIL-2 (NK-92) came out at 1 fold.

B4: 1H3-hIgG1-L6-hIL-2 (D20A/Y45V) (protein)
heavy: EVQLVESGGGLVQPGRSLKLSCAVSGFTFSDYAMAWVRQAPKKGLEWVATISYDGSRTYYRDSVKGRFTISRDNAKITLYLQMDSLRSEDTATYYCARHGSGYFDYWGQGVMVTVSS[not shown - about 450 residues with a human IgG1 Fc and changes]
light: B1 light
On to B4, for which the Fold change from hIL-2 (TF1 + IL-2Rβ), pSTAT5 fixed conc. in test [1] stood at 3 fold. This molecule had a Fold change from hIL-2 (NK-92), pSTAT5 fixed conc. in test [3] of 21 fold.

B5: 1H3-hIgG1-L6-hIL-2 (D20A/E61N) (protein)
heavy: EVQLVESGGGLVQPGRSLKLSCAVSGFTFSDYAMAWVRQAPKKGLEWVATISYDGSRTYYRDSVKGRFTISRDNAKITLYLQMDSLRSEDTATYYCARHGSGYFDYWGQGVMVTVSS[not shown - about 450 residues with a human IgG1 Fc and changes]
light: B1 light
B5: the Fold change from hIL-2 (TF1 + IL-2Rβ), pSTAT5 fixed conc. in test [1] is 1 fold. Moreover, in test [3], the Fold change from hIL-2 (NK-92), pSTAT5 fixed conc. is 15 fold.

B6: 1H3-hIgG1-L6-hIL-2 (I92D/F42L) (protein)
heavy: EVQLVESGGGLVQPGRSLKLSCAVSGFTFSDYAMAWVRQAPKKGLEWVATISYDGSRTYYRDSVKGRFTISRDNAKITLYLQMDSLRSEDTATYYCARHGSGYFDYWGQGVMVTVSS[not shown - about 450 residues with a human IgG1 Fc and changes]
light: B1 light
For the molecule B6, in test [1], the Fold change from hIL-2 (TF1 + IL-2Rβ), pSTAT5 fixed conc. worked out at 5 fold. In test [3], the Fold change from hIL-2 (NK-92), pSTAT5 fixed conc. turned out to be 31 fold.

B7: 1H3-hIgG1-L6-hIL-2 (D20A/E61Q) (protein)
heavy: EVQLVESGGGLVQPGRSLKLSCAVSGFTFSDYAMAWVRQAPKKGLEWVATISYDGSRTYYRDSVKGRFTISRDNAKITLYLQMDSLRSEDTATYYCARHGSGYFDYWGQGVMVTVSS[not shown - about 450 residues with a human IgG1 Fc and changes]
light: B1 light
With B7, the Fold change from hIL-2 (TF1 + IL-2Rβ), pSTAT5 fixed conc. in test [1] turned out to be 2 fold. For the same molecule, the Fold change from hIL-2 (NK-92), pSTAT5 fixed conc. in test [3] was 16 fold.

B8: 1H3-hIgG1-L6-hIL-2 (I92D/F42N) (protein)
heavy: EVQLVESGGGLVQPGRSLKLSCAVSGFTFSDYAMAWVRQAPKKGLEWVATISYDGSRTYYRDSVKGRFTISRDNAKITLYLQMDSLRSEDTATYYCARHGSGYFDYWGQGVMVTVSS[not shown - about 450 residues with a human IgG1 Fc and changes]
light: B1 light
On to B8, for which the Fold change from hIL-2 (TF1 + IL-2Rβ), pSTAT5 fixed conc. in test [1] was 5 fold. In test [3], this molecule displayed a Fold change from hIL-2 (NK-92), pSTAT5 fixed conc. of 29 fold.

B9: 1H3-hIgG1-L6-hIL-2 (D20A/E61G) (protein)
heavy: EVQLVESGGGLVQPGRSLKLSCAVSGFTFSDYAMAWVRQAPKKGLEWVATISYDGSRTYYRDSVKGRFTISRDNAKITLYLQMDSLRSEDTATYYCARHGSGYFDYWGQGVMVTVSS[not shown - about 450 residues with a human IgG1 Fc and changes]
light: B1 light
For the molecule B9, the Fold change from hIL-2 (TF1 + IL-2Rβ), pSTAT5 fixed conc. in test [1] turned out to be 2 fold. Besides, the Fold change from hIL-2 (NK-92), pSTAT5 fixed conc. in test [3] was 15 fold.

B10: 1H3-hIgG1-L6-hIL-2 (D20A/F42G) (protein)
heavy: EVQLVESGGGLVQPGRSLKLSCAVSGFTFSDYAMAWVRQAPKKGLEWVATISYDGSRTYYRDSVKGRFTISRDNAKITLYLQMDSLRSEDTATYYCARHGSGYFDYWGQGVMVTVSS[not shown - about 450 residues with a human IgG1 Fc and changes]
light: B1 light
Turning to B10, in test [1], the Fold change from hIL-2 (TF1 + IL-2Rβ), pSTAT5 fixed conc. worked out at 2 fold. Moreover, the Fold change from hIL-2 (NK-92), pSTAT5 fixed conc. in test [3] was 17 fold.

B11: 1H3-hIgG1-L6-hIL-2 (I92D/F42P) (protein)
heavy: EVQLVESGGGLVQPGRSLKLSCAVSGFTFSDYAMAWVRQAPKKGLEWVATISYDGSRTYYRDSVKGRFTISRDNAKITLYLQMDSLRSEDTATYYCARHGSGYFDYWGQGVMVTVSS[not shown - about 450 residues with a human IgG1 Fc and changes]
light: B1 light
As for B11, the Fold change from hIL-2 (TF1 + IL-2Rβ), pSTAT5 fixed conc. in test [1] was 4 fold. This molecule displayed a Fold change from hIL-2 (NK-92), pSTAT5 fixed conc. in test [3] of 29 fold.

B12: 1H3-hIgG1-L6-hIL-2 (D20A/E61Y) (protein)
heavy: EVQLVESGGGLVQPGRSLKLSCAVSGFTFSDYAMAWVRQAPKKGLEWVATISYDGSRTYYRDSVKGRFTISRDNAKITLYLQMDSLRSEDTATYYCARHGSGYFDYWGQGVMVTVSS[not shown - about 450 residues with a human IgG1 Fc and changes]
light: B1 light
In the case of B12, in test [1], the Fold change from hIL-2 (TF1 + IL-2Rβ), pSTAT5 fixed conc. came to 2 fold. In test [3], the Fold change from hIL-2 (NK-92), pSTAT5 fixed conc. is 15 fold.

B13: 1H3-hIgG1-L6-hIL-2 (I92D/F42E) (protein)
heavy: EVQLVESGGGLVQPGRSLKLSCAVSGFTFSDYAMAWVRQAPKKGLEWVATISYDGSRTYYRDSVKGRFTISRDNAKITLYLQMDSLRSEDTATYYCARHGSGYFDYWGQGVMVTVSS[not shown - about 450 residues with a human IgG1 Fc and changes]
light: B1 light
As for B13, the Fold change from hIL-2 (TF1 + IL-2Rβ), pSTAT5 fixed conc. in test [1] came to 5 fold. The Fold change from hIL-2 (NK-92), pSTAT5 fixed conc. in test [3] stood at 30 fold.

B14: 1H3-hIgG1-L6-hIL-2 (D20A/E61T) (protein)
heavy: EVQLVESGGGLVQPGRSLKLSCAVSGFTFSDYAMAWVRQAPKKGLEWVATISYDGSRTYYRDSVKGRFTISRDNAKITLYLQMDSLRSEDTATYYCARHGSGYFDYWGQGVMVTVSS[not shown - about 450 residues with a human IgG1 Fc and changes]
light: B1 light
B14: the Fold change from hIL-2 (TF1 + IL-2Rβ), pSTAT5 fixed conc. in test [1] was determined as 2 fold. In test [3], this molecule displayed a Fold change from hIL-2 (NK-92), pSTAT5 fixed conc. of 16 fold.

B15: 1H3-hIgG1-L6-hIL-2 (D20A/E61D) (protein)
heavy: EVQLVESGGGLVQPGRSLKLSCAVSGFTFSDYAMAWVRQAPKKGLEWVATISYDGSRTYYRDSVKGRFTISRDNAKITLYLQMDSLRSEDTATYYCARHGSGYFDYWGQGVMVTVSS[not shown - about 450 residues with a human IgG1 Fc and changes]
light: B1 light
For B15, in test [1], the Fold change from hIL-2 (TF1 + IL-2Rβ), pSTAT5 fixed conc. amounted to 0 fold. In test [3], this molecule gave a Fold change from hIL-2 (NK-92), pSTAT5 fixed conc. of 11 fold.

B16: 1H3-hIgG1-L6-hIL-2 (D20A/Y45S) (protein)
heavy: EVQLVESGGGLVQPGRSLKLSCAVSGFTFSDYAMAWVRQAPKKGLEWVATISYDGSRTYYRDSVKGRFTISRDNAKITLYLQMDSLRSEDTATYYCARHGSGYFDYWGQGVMVTVSS[not shown - about 450 residues with a human IgG1 Fc and changes]
light: B1 light
In the case of B16, the Fold change from hIL-2 (TF1 + IL-2Rβ), pSTAT5 fixed conc. in test [1] was 3 fold. In test [3], the Fold change from hIL-2 (NK-92), pSTAT5 fixed conc. was determined as 14 fold.

Values taken from patent US20240076343A1.
